According to article PMC4336329 (PLoS ONE, 2015):
About 2,200 (0.71%) of roughly 310,000 compounds showed an effect of 50% or more. The effect is printed as a negative number. This is one part of the list.

Biological target: human ether-à-go-go-related gene (hERG) potassium channel (human, UniProt Q12809)
Experiment: primary screen, population patch clamp on CHO cells stably expressing hERG

human ether-à-go-go-related gene (hERG) potassium channel, sequence (Q12809 whole entry, looked up): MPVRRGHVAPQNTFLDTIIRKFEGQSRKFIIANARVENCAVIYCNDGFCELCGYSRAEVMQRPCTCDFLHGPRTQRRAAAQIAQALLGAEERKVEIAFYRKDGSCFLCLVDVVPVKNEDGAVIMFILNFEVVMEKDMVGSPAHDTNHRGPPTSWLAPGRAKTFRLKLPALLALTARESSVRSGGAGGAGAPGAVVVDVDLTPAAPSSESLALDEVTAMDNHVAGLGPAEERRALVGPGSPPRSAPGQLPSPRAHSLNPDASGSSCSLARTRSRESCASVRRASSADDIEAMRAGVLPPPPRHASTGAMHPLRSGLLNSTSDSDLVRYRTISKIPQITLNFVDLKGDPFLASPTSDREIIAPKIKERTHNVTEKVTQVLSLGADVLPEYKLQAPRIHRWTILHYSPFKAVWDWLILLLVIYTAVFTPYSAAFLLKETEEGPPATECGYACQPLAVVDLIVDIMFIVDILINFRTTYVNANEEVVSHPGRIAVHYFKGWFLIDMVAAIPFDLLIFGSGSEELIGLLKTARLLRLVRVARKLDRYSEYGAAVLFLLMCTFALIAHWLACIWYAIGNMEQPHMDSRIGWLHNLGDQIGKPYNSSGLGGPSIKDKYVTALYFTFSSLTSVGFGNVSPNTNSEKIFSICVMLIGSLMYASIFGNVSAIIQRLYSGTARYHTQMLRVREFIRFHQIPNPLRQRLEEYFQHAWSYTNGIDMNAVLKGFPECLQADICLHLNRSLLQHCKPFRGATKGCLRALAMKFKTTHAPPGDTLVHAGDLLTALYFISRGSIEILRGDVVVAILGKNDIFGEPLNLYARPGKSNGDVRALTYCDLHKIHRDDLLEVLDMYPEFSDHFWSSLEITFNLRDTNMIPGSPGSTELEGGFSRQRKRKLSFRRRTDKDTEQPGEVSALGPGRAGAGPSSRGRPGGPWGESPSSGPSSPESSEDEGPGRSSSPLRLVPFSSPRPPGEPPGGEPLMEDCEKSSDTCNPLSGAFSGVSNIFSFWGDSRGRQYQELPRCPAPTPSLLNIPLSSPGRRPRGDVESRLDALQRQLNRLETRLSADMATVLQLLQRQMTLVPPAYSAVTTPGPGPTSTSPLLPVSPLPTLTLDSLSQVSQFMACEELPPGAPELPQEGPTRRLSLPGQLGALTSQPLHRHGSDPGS

Compound	hERG current change (%, negative = inhibition) at 1uM [%]
CCOC(=O)C1=C(c2ccccc2)Nc2ncnn2C1c1cc(OC)ccc1OC (stereo not drawn)	-7.08
CC(=O)Nc1ccc(NC(=O)C(C)Sc2nc3nc(C)cc(C)n3n2)cc1 (stereo not drawn)	9.36
O=C(NC1CCS(=O)(=O)C1)C1C2CC3CC(C2)CC1C3 (stereo not drawn)	12.2
CN(C(=O)COc1ccccc1)c1nnc(-c2ccncc2)s1	7.45
COc1ccc(C(=O)N(CC2CCCO2)C(C(=O)NCCC(C)C)c2ccc(C)cc2)cc1OC (stereo not drawn)	6.63
COc1ccc(NC(=O)CSCC(=O)N(C)CC(=O)Nc2c(C)cccc2C)cc1	7.49
Cc1ccc(S(=O)(=O)c2cc3c(=O)n4cccc(C)c4nc3n(Cc3ccncc3)c2=N)cc1	9.03
CCCCOc1ccc(C(C)(O)CCN2CCOCC2)cc1 (stereo not drawn)	2.6
CC(C)(C(=O)c1ccccc1)/[N+]([O-])=C/c1ccc(Br)cc1	13.5
COc1ccc(S(=O)(=O)NCC(=O)N(CC(=O)NCC2CCCO2)c2cc(C)ccc2C)cc1 (stereo not drawn)	11.1
CC1CCCN(C(=O)c2ccncc2)C1 (stereo not drawn)	4.85
CC(CC(=O)Nc1ccccc1C(F)(F)F)c1ccccc1 (stereo not drawn)	0.143
Cc1cc(C)c(NC(=O)CNC(=O)CSc2nnc(N)s2)c(C)c1	11.2
Cc1nn(Cc2ccc(F)cc2)c(C)c1NC(=O)c1cnn2cccnc12	16
COCCNC(=O)CN(C(=O)CCC(=O)Nc1ccccn1)c1ccccc1F	14.6
C=CCNc1nc(Cl)ncc1F	2.31
CSc1ccccc1-c1nnc(-c2ccc(Cl)cc2Cl)o1	10.1
Cn1cc(C(C[N+](=O)[O-])c2ccccc2)c2ccccc21 (stereo not drawn)	10.1
COC(=O)c1ccc(COC(=O)c2ccc(CO)cc2)o1	13.2
CC1CCCCN1S(=O)(=O)c1ccc(C(=O)Nc2nnc(-c3ccccc3Cl)o2)cc1 (stereo not drawn)	5.52
O=C(N/C(=C/c1ccc(Cl)cc1)C(=O)N1CCCC1)c1ccccc1	2.73
O=C(COC(=O)c1ccc2c(c1)C(=O)N(c1cccc3ncccc13)C2=O)c1ccc(Cl)cc1	11.8
COc1ccc(C(NC=O)c2cc(OC)c(OC)cc2Br)cc1OC (stereo not drawn)	11
Cc1c(C)n2c(SCC(=O)N3CC(C)OC(C)C3)nnc2[nH]c1=O (stereo not drawn)	14.2
